PMC6919601, “Identification of Plasmodium dipeptidyl aminopeptidase allosteric inhibitors by high throughput screening” (PLoS ONE, 2019)
Hit rate of the full screen: of about 110,000 compounds, about 230 (0.21%) showed an effect of 50% or more. Some of the results follow.

Molecular target: DPAP1 (Plasmodium falciparum, UniProt Q8IIJ9)
Experiment: primary screen, percent inhibition; read by cleavage of a fluorogenic dipeptide substrate; higher = more effect of the substance
Design: species or system P. falciparum D10 trophozoite lysates; single well
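Also: 30 min substrate incubation versus DMSO and 10 µM JCP410 controls.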

Chain of DPAP1 (Q8IIJ9 whole entry, looked up): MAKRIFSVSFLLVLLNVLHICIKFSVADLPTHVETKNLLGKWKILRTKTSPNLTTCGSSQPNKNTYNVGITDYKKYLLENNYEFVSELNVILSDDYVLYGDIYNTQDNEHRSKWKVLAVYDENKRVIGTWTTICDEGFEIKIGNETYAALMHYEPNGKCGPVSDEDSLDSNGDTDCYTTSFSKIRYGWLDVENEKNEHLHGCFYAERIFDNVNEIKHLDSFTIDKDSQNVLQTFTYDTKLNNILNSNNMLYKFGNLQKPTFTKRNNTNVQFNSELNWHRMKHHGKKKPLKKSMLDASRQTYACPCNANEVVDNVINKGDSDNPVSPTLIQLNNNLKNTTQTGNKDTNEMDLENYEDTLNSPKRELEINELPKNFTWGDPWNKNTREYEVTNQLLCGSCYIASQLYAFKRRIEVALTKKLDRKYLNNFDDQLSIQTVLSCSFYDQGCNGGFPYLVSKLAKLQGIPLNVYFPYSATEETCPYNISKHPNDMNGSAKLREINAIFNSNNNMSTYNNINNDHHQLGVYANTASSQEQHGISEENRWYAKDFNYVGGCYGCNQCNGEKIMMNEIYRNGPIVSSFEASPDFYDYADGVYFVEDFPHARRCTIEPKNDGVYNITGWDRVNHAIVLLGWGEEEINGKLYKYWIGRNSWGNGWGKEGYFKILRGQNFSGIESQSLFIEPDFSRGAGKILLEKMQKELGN

SMILES | % Inhibition @ 10 uM [%]
COC(=O)c1cn(-c2ccccc2)nc1N | 4.61
CC1CCCC(C)N1C(=O)CSCc1cnn(-c2ccccc2)c1-n1cccc1 (centres unmarked) | 0.623
COc1ccc(-c2csc3ncnc(O)c23)cc1 | 2.08
Cc1nc(O)c2c(n1)OC(N)=C(C#N)C2c1ccc(Cl)c(Cl)c1 (centres unmarked) | -4.01
COCC(C)NCc1ccc(OC)c(Br)c1 (centres unmarked) | 5
Cc1ccc(OCC(=O)Nc2cccc(C(=O)O)c2)cc1 | -5.85
CCC(C)NS(=O)(=O)c1ccccc1[N+](=O)[O-] (centres unmarked) | -0.999
O=C(CSc1nnc(CNC(=O)c2cccs2)o1)NCCc1ccccc1 | -3.39
Cc1cc(S(=O)(=O)n2nc(-c3ccccc3)cc2N)ccc1F | -0.495
COc1ccc(CCNC(=O)C2CCCN(S(=O)(=O)N3CCCCCC3)C2)cc1OC (centres unmarked) | -2.26
COc1cccc(NC(=O)CN(Cc2ccc(Cl)c(Cl)c2)S(=O)(=O)c2ccccc2)c1 | 1.29
CCOC(=O)c1cnc(-c2ccccc2)nc1C1CCNCC1 | 4.01
O=C(NC(=O)c1ccccc1F)OCCN1CCN(c2ncc(C(F)(F)F)cc2Cl)CC1 | -4.49
COc1ccc(-c2nc(NCCc3c[nH]c4ccc(OC)cc34)sc2C)cc1 | -6.71
COc1cc(C(=O)OC(c2ccc3c(c2)OCO3)c2nccc3ccccc23)cc(OC)c1OC (centres unmarked) | 0.131
CCCNC(=O)NCc1nc(-c2ccc(C)cc2)no1 | 0.00706
CCS(=O)(=O)C1=NSC2=NC(=O)/C(=C\c3ccc(OCc4ccccc4)cc3)C(=N)N21 | 0.163
COc1cc2oc3ccccc3c2cc1NC(=O)COc1ccc(C)cc1 | -1.65
COc1cc(CN2CCN(C/C=C/c3ccccc3)CC2)cc(OC)c1 | -3.15
CCC(C(=O)Nc1cc(C)on1)c1ccccc1 (centres unmarked) | -3.41
CCOC(=O)C(C#N)c1ncccn1 (centres unmarked) | 2.65
O=C(NC1CCN(Cc2ccccc2)CC1)c1cc2c(s1)-c1ccccc1S(=O)(=O)C2 | 0.953
CCN(CC)CC(=O)Nc1ccc(OC)cc1 | -3.92
O=C1c2ccccc2C(=O)N1CCS(=O)(=O)Oc1ccccc1 | 7.5
CCOc1ccc2nc(N3CCC(C(=O)N4CCC(N5CCCCC5)CC4)CC3)sc2c1 | 7.91
CCc1n(CC(O)COCC2CC=CCC2)c2ccccc2[n+]1C (centres unmarked) | -2.14

SMILES | % Inhibition @ 10 uM [%]
O=C1CCc2cc(OCc3ccc(Cl)cc3)ccc2O1 | -3.5
O=C(CN1N=C(c2ccc(Cl)cc2)CCC1=O)NC1CCCCCCC1 | 0.514
Cc1ccc(C2CC(O)=C/C(=N/c3[nH]nc(C)c3-c3ccccc3)C2)cc1 (centres unmarked) | 2.31
Cn1c(=O)n(C)c2cc(/C=C3/NC(=O)N(Cc4ccc(Br)cc4)C3=O)ccc21 | 6.69
Cc1c(C(=O)N2CCN(Cc3ccccc3)CC2)sc2ncnc(N3CCCCC3C)c12 (centres unmarked) | 2.38
c1ccc2cc(OCCCCN3CCOCC3)ccc2c1 | -3.37
COc1cccc(/C=c2\sc3nc(-c4cc(OC)c(OC)c(OC)c4)nn3c2=O)c1OC | 5.44
O=C(CCNS(=O)(=O)c1ccc(Cl)cc1)NCc1cccs1 | -3.78
CC(NC(=O)c1nc2ncccn2n1)c1ccccc1 (centres unmarked) | -3.76
COc1ccc(S(=O)Cc2ccc(C(=O)NCc3ccc(OC(C)C)cc3)o2)cc1 (centres unmarked) | -2.15
CCC(=O)Nc1ccc(S(=O)(=O)N2CCOCC2)cc1 | -4.03
Cc1cc(=O)c2c(n1Cc1ccccc1)CC(C)(C)CC2=O | 1.88
CCn1nc(-c2cc(Br)ccc2OC)nc2c(=O)n(C)c(=O)nc1-2 | 25.4
CCOC(=O)N1CCN(C(=O)Cn2cnc3c(nnn3Cc3ccc(C)cc3)c2=O)CC1 | -2.16
COc1ccc(C2C(C#N)=C(N)Oc3c2sc2nc(C)cc(C)c32)cc1 (centres unmarked) | -0.968
OCC1CCCN1CCCc1ccccc1 (centres unmarked) | -3.8
CCc1[nH]nc2c1C(c1cc(OC)c(OC)c(OC)c1)C(C#N)=C(N)O2 (centres unmarked) | -0.941
O=C(Nc1ccc(S(=O)(=O)N2CCc3ccccc32)cc1)c1ccccc1 | 2.27
Brc1ccccc1OCCCn1ccnc1 | 1.74
Cc1cccc(COc2cccc(C3C(C#N)=C(N)Oc4[nH]nc(C)c43)c2)c1 (centres unmarked) | 6.24
COc1cc(OC)c(OC)cc1/C=C1/N=C(c2cccc3ccccc23)OC1=O | -25
COc1ccc(-c2ccc(-c3noc(-c4ccccc4C)n3)c(OC)n2)cc1 | -1.33
Cc1nn(C)c(C(=O)NC(C)C2CC3CCC2C3)c1Br (centres unmarked) | 3.13
COc1ccccc1OCCN1CCCC1 | -2.91
COC(=O)c1ccn(C(=O)c2ccc(Cl)cc2)n1 | -8.17
CC1CC(=O)C2=C(C1)OC(N)=C(C#N)C2c1ccc(F)c(F)c1 (centres unmarked) | 1.96

SMILES | % Inhibition @ 10 uM [%]
CCOc1ccc(C(=O)Nc2ccc(Cl)cc2)cc1 | -3.69
CC1(C)Cc2c(c(N3CCCC3)nc3sc4c(NCCN5CCOCC5)ncnc4c23)CO1 | 4.93
CCc1ccc(CNc2ccc(NC(C)=O)cc2)cc1 | 0.231
CC1CCCCN1CCNS(=O)(=O)c1ccc2nc(O)ccc2c1 (centres unmarked) | -8.32
CCc1ccccc1OCC(=O)Nc1ccc(F)cc1 | -1.43
Cc1ccc(C)c(NC(=O)C[n+]2ccc3ccccc3c2)c1 | -4.12
Cc1cccc(-n2c(Cc3cccn3C)nnc2SCC(=O)NCC2CCCO2)c1C (centres unmarked) | 2.12
COc1cccc(S(=O)(=O)NCc2ccc(C(=O)N3CCN(c4ccccc4OC)CC3)cc2)c1 | 8.18
O=C(O)C12CC3CC(CC(S)(C3)C1)C2 | -8.51
CSc1cccc(NC(=O)c2cncc(Br)c2)c1 | -0.68
CCCCN(C)C(=O)Nc1cn(C)c(=O)c2ccccc12 | 0.201
CCOc1ccc(C(=O)NCc2ccncc2)cc1 | -7.08
CN(CCc1ccccc1)Cc1ccncc1 | -2.02
CCOc1ccc(C2c3c(oc4cc(C)c(C)cc4c3=O)C(=O)N2CCOC)cc1OC (centres unmarked) | -1.11
CCOc1ccc(NC(=O)C2CC(=O)N(c3ccc(OCC)cc3)C2)cc1 (centres unmarked) | 6.65
CCN1CCn2c1nc(N1CCOCC1)nc2=O | -4.02
O=C(CN1C(=O)c2cccc3cccc1c23)Nc1ccc(F)c(Cl)c1 | 9.01
COc1ccc(CNC(=O)CCc2nnc3ccc(N4CCC(C)CC4)nn23)cc1 | -4.02
O=C(Nc1cc(Cl)ccc1Cl)c1cc(Cl)ccc1NS(=O)(=O)c1ccc(Cl)c([N+](=O)[O-])c1 | 9.29
COc1ccc(NC(=O)COc2ccc(Br)cc2C)cc1 | -2.03
Cc1cc(C)nc(Nc2n[nH]c(-c3ccccc3C)n2)n1 | -6.57
c1ccc2c(c1)c(N1CCN(C3CCCCC3)CC1)nn1nnnc21 | -5.09
COCCNC(=O)C1CCN(S(=O)(=O)c2ccccc2)CC1 | -0.169
O=C(CN1CCN(Cc2ccc(F)cc2Cl)C1=O)NCCCN1CCCC1=O | -2.7
COCc1cc(C)n(CC(=O)Nc2ccccc2)c(=O)c1C#N | -2.88
CCc1nc(C)ccc1OCC(=O)N(CC)CC | -5.15

SMILES | % Inhibition @ 10 uM [%]
O=C(Cn1nc(-c2ccc(Cl)cc2)ccc1=O)NCc1ccc2c(c1)OCO2 | 1.62
O=C(O)c1cc(-c2ccc(Cl)cc2)nc2ccccc12 | -2.55
c1ccc(Sc2ccc3c(c2)OCO3)c(CNC2=NCCN2)c1 | -1.36
CC(=O)c1cc(F)c(N2CCN(c3ccc([N+](=O)[O-])cc3F)CC2)cc1C | -1.2
COc1ccc(C2C(=O)N(C3CCC(C)CC3)CC(=O)N2CCc2ccc(Cl)cc2)cc1OC (centres unmarked) | 4.36
CCCCN(C)CCNC(=O)Cn1ncc2c3cc(C)ccc3nc-2c1O | -1.97
Cc1ccc(N2C(=O)CSC2c2ccc(Br)cc2)cc1 (centres unmarked) | -0.132
N#CSCC(=O)N1c2ccccc2CCc2ccccc21 | 6.3
CCC(C)Sc1nc(O)cc(O)n1 (centres unmarked) | 4.03
O=C1CCCc2c1nc(-c1ccccc1Cl)n2O | 0.247
CCOC(=O)C1=C(C)NC(=O)N(C(C)=O)C1c1ccc(OC)cc1 (centres unmarked) | -4.24
COc1cc(CN2CCN(Cc3ccc(C(F)(F)F)cc3)CC2)cc(OC)c1OC | -5.19
CCn1c(P(=O)(O)c2ccc(C(=O)O)cc2)nc2ccccc21 | 3.58
COc1ccccc1Nc1nc(Cl)nc(Sc2nc(C)cc(C)n2)n1 | 1.29
Oc1ccc2ccccc2c1C(c1ccccc1)N1CCOCC1 (centres unmarked) | 4.8
Cc1ccc(NC(=O)c2c(Cl)c(C)nn2C)c(Br)c1 | 3.72
Cc1cc(C(=O)N2CC(C)CC(C)C2)n(-c2ccccc2)n1 (centres unmarked) | -5.58
CCCCOC(=O)Nc1nccs1 | 0.685
CC1CN(C(=O)c2ccc(Br)cc2)CC(C)O1 (centres unmarked) | 1.84
N/C(c1nsnc1N)=[N+](/[O-])C(=O)c1ccc2nsnc2c1 | 1.97
COc1ccc(C2=NN(C(=O)CCC(=O)O)C(c3ccccc3F)C2)cc1 (centres unmarked) | 4.59
CC(=O)Nc1nc(Cn2nnc(-c3ccc4c(c3)OCO4)n2)nc(N(C)C)n1 | -0.403
Cc1ccc(Cl)cc1NC(=O)C12CCC(C)(C(=O)C1=O)C2(C)C (centres unmarked) | 1.78
N#Cc1nnn(Cc2ccccc2)c1N | -6.84
COC(=O)c1nc2n(n1)C(c1ccccc1C)C1=C(O)CCCC1=N2 (centres unmarked) | -3.37
N=c1n(CCOc2ccc(Cl)cc2)c2ccccc2n1CC(N)=O | -3.72
